Results from the supplement of paper PMC12423691.
The other results are listed elsewhere or left out. Binding of human transcription factors and regulators to the viral nucleoprotein by AlphaScreen, crude cell-free proteins, amounts not normalised, one pass. Fold of the Venus control; higher = more signal. No active / inactive call. Single-pass screen; sequences are the whole Swiss-Prot entries looked up by name.

B1: TADA2A, O75478 (protein)
chain: MDRLGPFSNDPSDKPPCRGCSSYLMEPYIKCAECGPPPFFLCLQCFTRGFEYKKHQSDHTYEIMTSDFPVLDPSWTAQEEMALLEAVMDCGFGNWQDVANQMCTKTKEECEKHYMKHFINNPLFASTLLNLKQAEEAKTADTAIPFHSTDDPPRPTFDSLLSRDMAGYMPARADFIEEFDNYAEWDLRDIDFVEDDSDILHALKMAVVDIYHSRLKERQRRKKIIRDHGLINLRKFQLMERRYPKEVQDLYETMRRFARIVGPVEHDKFIESHALEFELRREIKRLQEYRTAGITNFCSARTYDHLKKTREEERLKRTMLSEVLQYIQDSSACQQWLRRQADIDSGLSPSIPMASNSGRRSAPPLNLTGLPGTEKLNEKEKELCQMVRLVPGAYLEYKSALLNECNKQGGLRLAQARALIKIDVNKTRKIYDFLIREGYITKG
B2: POU1F1, P28069 (protein)
chain: MSCQAFTSADTFIPLNSDASATLPLIMHHSAAECLPVSNHATNVMSTATGLHYSVPSCHYGNQPSTYGVMAGSLTPCLYKFPDHTLSHGFPPIHQPLLAEDPTAADFKQELRRKSKLVEEPIDMDSPEIRELEKFANEFKVRRIKLGYTQTNVGEALAAVHGSEFSQTTICRFENLQLSFKNACKLKAILSKWLEEAEQVGALYNEKVGANERKRKRRTTISIAAKDALERHFGEQNKPSSQEIMRMAEELNLEKEVVRVWFCNRRQREKRVKTSLNQSLFSISKEHLECR
B3: PTF1A, Q7RTS3 (protein)
chain: MDAVLLEHFPGGLDAFPSSYFDEDDFFTDQSSRDPLEDGDELLADEQAEVEFLSHQLHEYCYRDGACLLLQPAPPAAPLALAPPSSGGLGEPDDGGGGGYCCETGAPPGGFPYSPGSPPSCLAYPCAGAAVLSPGARLRGLSGAAAAAARRRRRVRSEAELQQLRQAANVRERRRMQSINDAFEGLRSHIPTLPYEKRLSKVDTLRLAIGYINFLSELVQADLPLRGGGAGGCGGPGGGGRLGGDSPGSQAQKVIICHRGTRSPSPSDPDYGLPPLAGHSLSWTDEKQLKEQNIIRTAKVWTPEDPRKLNSKSSFNNIENEPPFEFVS
B4: MTDH, Q86UE4 (protein)
chain: MAARSWQDELAQQAEEGSARLREMLSVGLGFLRTELGLDLGLEPKRYPGWVILVGTGALGLLLLFLLGYGWAAACAGARKKRRSPPRKREEAAAVPAAAPDDLALLKNLRSEEQKKKNRKKLSEKPKPNGRTVEVAEGEAVRTPQSVTAKQPPEIDKKNEKSKKNKKKSKSDAKAVQNSSRHDGKEVDEGAWETKISHREKRQQRKRDKVLTDSGSLDSTIPGIENTITVTTEQLTTASFPVGSKKNKGDSHLNVQVSNFKSGKGDSTLQVSSGLNENLTVNGGGWNEKSVKLSSQISAGEEKWNSVSPASAGKRKTEPSAWSQDTGDANTNGKDWGRSWSDRSIFSGIGSTAEPVSQSTTSDYQWDVSRNQPYIDDEWSGLNGLSSADPNSDWNAPAEEWGNWVDEERASLLKSQEPIPDDQKVSDDDKEKGEGALPTGKSKKKKKKKKKQGEDNSTAQDTEELEKEIREDLPVNTSKTRPKQEKAFSLKTISTSDPAEVLVKNSQPIKTLPPATSTEPSVILSKSDSDKSSSQVPPILQETDKSKSNTKQNSVPPSQTKSETSWESPKQIKKKKKARRET
B5: EOMES, O95936 (protein)
chain: MQLGEQLLVSSVNLPGAHFYPLESARGGSGGSAGHLPSAAPSPQKLDLDKASKKFSGSLSCEAVSGEPAAASAGAPAAMLSDTDAGDAFASAAAVAKPGPPDGRKGSPCGEEELPSAAAAAAAAAAAAAATARYSMDSLSSERYYLQSPGPQGSELAAPCSLFPYQAAAGAPHGPVYPAPNGARYPYGSMLPPGGFPAAVCPPGRAQFGPGAGAGSGAGGSSGGGGGPGTYQYSQGAPLYGPYPGAAAAGSCGGLGGLGVPGSGFRAHVYLCNRPLWLKFHRHQTEMIITKQGRRMFPFLSFNINGLNPTAHYNVFVEVVLADPNHWRFQGGKWVTCGKADNNMQGNKMYVHPESPNTGSHWMRQEISFGKLKLTNNKGANNNNTQMIVLQSLHKYQPRLHIVEVTEDGVEDLNEPSKTQTFTFSETQFIAVTAYQNTDITQLKIDHNPFAKGFRDNYDSSHQIVPGGRYGVQSFFPEPFVNTLPQARYYNGERTVPQTNGLLSPQQSEEVANPPQRWLVTPVQQPGTNKLDISSYESEYTSSTLLPYGIKSLPLQTSHALGYYPDPTFPAMAGWGGRGSYQRKMAAGLPWTSRTSPTVFSEDQLSKEKVKEEIGSSWIETPPSIKSLDSNDSGVYTSACKRRRLSPSNSSNENSPSIKCEDINAEEYSKDTSKGMGGYYAFYTTP
B6: TRIM52, Q96A61 (protein)
chain: MAGYATTPSPMQTLQEEAVCAICLDYFKDPVSISCGHNFCRGCVTQLWSKEDEEDQNEEEDEWEEEEDEEAVGAMDGWDGSIREVLYRGNADEELFQDQDDDELWLGDSGITNWDNVDYMWDEEEEEEEEDQDYYLGGLRPDLRIDVYREEEILEAYDEDEDEELYPDIHPPPSLPLPGQFTCPQCRKSFTRRSFRPNLQLANMVQIIRQMCPTPYRGNRSNDQGMCFKHQEALKLFCEVDKEAICVVCRESRSHKQHSVLPLEEVVQEYQEIKLETTLVGILQIEQESIHSKAYNQ
B7: TRIM62, Q9BVG3 (protein)
chain: MACSLKDELLCSICLSIYQDPVSLGCEHYFCRRCITEHWVRQEAQGARDCPECRRTFAEPALAPSLKLANIVERYSSFPLDAILNARRAARPCQAHDKVKLFCLTDRALLCFFCDEPALHEQHQVTGIDDAFDELQRELKDQLQALQDSEREHTEALQLLKRQLAETKSSTKSLRTTIGEAFERLHRLLRERQKAMLEELEADTARTLTDIEQKVQRYSQQLRKVQEGAQILQERLAETDRHTFLAGVASLSERLKGKIHETNLTYEDFPTSKYTGPLQYTIWKSLFQDIHPVPAALTLDPGTAHQRLILSDDCTIVAYGNLHPQPLQDSPKRFDVEVSVLGSEAFSSGVHYWEVVVAEKTQWVIGLAHEAASRKGSIQIQPSRGFYCIVMHDGNQYSACTEPWTRLNVRDKLDKVGVFLDYDQGLLIFYNADDMSWLYTFREKFPGKLCSYFSPGQSHANGKNVQPLRINTVRI
B8: ID3, Q02535 (protein)
chain: MKALSPVRGCYEAVCCLSERSLAIARGRGKGPAAEEPLSLLDDMNHCYSRLRELVPGVPRGTQLSQVEILQRVIDYILDLQVVLAEPAPGPPDGPHLPIQTAELTPELVISNDKRSFCH
B9: RNF25, Q96BH1 (protein)
chain: MAASASAAAGEEDWVLPSEVEVLESIYLDELQVIKGNGRTSPWEIYITLHPATAEDQDSQYVCFTLVLQVPAEYPHEVPQISIRNPRGLSDEQIHTILQVLGHVAKAGLGTAMLYELIEKGKEILTDNNIPHGQCVICLYGFQEKEAFTKTPCYHYFHCHCLARYIQHMEQELKAQGQEQEQERQHATTKQKAVGVQCPVCREPLVYDLASLKAAPEPQQPMELYQPSAESLRQQEERKRLYQRQQERGGIIDLEAERNRYFISLQQPPAPAEPESAVDVSKGSQPPSTLAAELSTSPAVQSTLPPPLPVATQHICEKIPGTRSNQQRLGETQKAMLDPPKPSRGPWRQPERRHPKGGECHAPKGTRDTQELPPPEGPLKEPMDLKPEPHSQGVEGPPQEKGPGSWQGPPPRRTRDCVRWERSKGRTPGSSYPRLPRGQGAYRPGTRRESLGLESKDGS
B10: ZNF837, Q96EG3 (protein)
chain: MEAPAQKAGQGGLPKADAQGASGAREKRPEEPRPLEEDRAGSRPTQKGDLRGAAGGRTTPPGGGSRGCSLGVSPGPGTRHSAGTRPLVREPCGPTSSQNPELVIPEGLQAREGPCRSPARGGDCSRNSCLAWHRGAPAGETPPVCDPCPERIQNHPRTQLCEVHTDCWPCQPGTGAPTCPRTPKPTSRGRNPLVEQPRACACGEAFAWRALRIPQERLQATEEPRPCARCGKRFRPNQQQQAGKSPPVCPECGQTSRPRPIVPDPPAQRLYACDECGKAFTRTSSLLQHQRIHTGERPYECAECGKAFVRCSGLYRHQKTHSAERHRRGPVLARRAFRLGCPPCGDYSERSPRRGSGAGEKPYECADCAKAFGLFSHLVEHRRVHTGEKPYACPECGKAFNQRSNLSRHQRTHSSAKPYACPLCEKAFKGRSGLVQHQRAHTGERPYGCSECGKTFRGCSELRQHERLHSGEKPYICRDCGKAFVRNCSLVRHLRTHTGERPYACGDCGRAFSQRSNLNEHRKRHGGRAAP
B11: SREBF1, P36956 (protein)
chain: MDEPPFSEAALEQALGEPCDLDAALLTDIEDMLQLINNQDSDFPGLFDPPYAGSGAGGTDPASPDTSSPGSLSPPPATLSSSLEAFLSGPQAAPSPLSPPQPAPTPLKMYPSMPAFSPGPGIKEESVPLSILQTPTPQPLPGALLPQSFPAPAPPQFSSTPVLGYPSPPGGFSTGSPPGNTQQPLPGLPLASPPGVPPVSLHTQVQSVVPQQLLTVTAAPTAAPVTTTVTSQIQQVPVLLQPHFIKADSLLLTAMKTDGATVKAAGLSPLVSGTTVQTGPLPTLVSGGTILATVPLVVDAEKLPINRLAAGSKAPASAQSRGEKRTAHNAIEKRYRSSINDKIIELKDLVVGTEAKLNKSAVLRKAIDYIRFLQHSNQKLKQENLSLRTAVHKSKSLKDLVSACGSGGNTDVLMEGVKTEVEDTLTPPPSDAGSPFQSSPLSLGSRGSGSGGSGSDSEPDSPVFEDSKAKPEQRPSLHSRGMLDRSRLALCTLVFLCLSCNPLASLLGARGLPSPSDTTSVYHSPGRNVLGTESRDGPGWAQWLLPPVVWLLNGLLVLVSLVLLFVYGEPVTRPHSGPAVYFWRHRKQADLDLARGDFAQAAQQLWLALRALGRPLPTSHLDLACSLLWNLIRHLLQRLWVGRWLAGRAGGLQQDCALRVDASASARDAALVYHKLHQLHTMGKHTGGHLTATNLALSALNLAECAGDAVSVATLAEIYVAAALRVKTSLPRALHFLTRFFLSSARQACLAQSGSVPPAMQWLCHPVGHRFFVDGDWSVLSTPWESLYSLAGNPVDPLAQVTQLFREHLLERALNCVTQPNPSPGSADGDKEFSDALGYLQLLNSCSDAAGAPAYSFSISSSMATTTGVDPVAKWWASLTAVVIHWLRRDEEAAERLCPLVEHLPRVLQESERPLPRAALHSFKAARALLGCAKAESGPASLTICEKASGYLQDSLATTPASSSIDKAVQLFLCDLLLVVRTSLWRQQQPPAPAPAAQGTSSRPQASALELRGFQRDLSSLRRLAQSFRPAMRRVFLHEATARLMAGASPTRTHQLLDRSLRRRAGPGGKGGAVAELEPRPTRREHAEALLLASCYLPPGFLSAPGQRVGMLAEAARTLEKLGDRRLLHDCQQMLMRLGGGTTVTSS

What follows are binders tested against nucleoprotein N of Crimean-Congo hemorrhagic fever virus (assay: AlphaScreen luminescence signal relative to Venus negative control (fold); higher = stronger binding to CCHFV N).
Description: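 AlphaScreen binding of cell-free made, FLAG-GST-tagged human transcription factors and regulators (crude translation products) to biotinylated N protein; signal as fold of the FLAG-GST-Venus control. One pass.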
Binder B1 has an AlphaScreen luminescence signal of 1.67. Binder B2 has an AlphaScreen luminescence signal of 2.56. Binder B3 has an AlphaScreen luminescence signal of 1.44. In the case of B4, the AlphaScreen luminescence signal is reported as 30.8. In the case of B5, the AlphaScreen luminescence signal is reported as 5.21. B6 showed an AlphaScreen luminescence signal of 2.79. B7 was tested, and the AlphaScreen luminescence signal was 2.33. B8 was tested, and the AlphaScreen luminescence signal was 0.837. With B9 the AlphaScreen luminescence signal was 9.26. Binder B10 has an AlphaScreen luminescence signal of 1.35. B11 showed an AlphaScreen luminescence signal of 2.14.
